# Hit rate of the full screen: of about 310,000 compounds, about 2,200 (0.71%) showed an effect of 50% or more. The effect is printed as a negative number. The list shows a part of the results.
# Biological target: human ether-à-go-go-related gene (hERG) potassium channel (human, UniProt Q12809)
# Assay: primary screen, population patch clamp on CHO cells stably expressing hERG
# Chain of human ether-à-go-go-related gene (hERG) potassium channel (Q12809 whole entry, looked up): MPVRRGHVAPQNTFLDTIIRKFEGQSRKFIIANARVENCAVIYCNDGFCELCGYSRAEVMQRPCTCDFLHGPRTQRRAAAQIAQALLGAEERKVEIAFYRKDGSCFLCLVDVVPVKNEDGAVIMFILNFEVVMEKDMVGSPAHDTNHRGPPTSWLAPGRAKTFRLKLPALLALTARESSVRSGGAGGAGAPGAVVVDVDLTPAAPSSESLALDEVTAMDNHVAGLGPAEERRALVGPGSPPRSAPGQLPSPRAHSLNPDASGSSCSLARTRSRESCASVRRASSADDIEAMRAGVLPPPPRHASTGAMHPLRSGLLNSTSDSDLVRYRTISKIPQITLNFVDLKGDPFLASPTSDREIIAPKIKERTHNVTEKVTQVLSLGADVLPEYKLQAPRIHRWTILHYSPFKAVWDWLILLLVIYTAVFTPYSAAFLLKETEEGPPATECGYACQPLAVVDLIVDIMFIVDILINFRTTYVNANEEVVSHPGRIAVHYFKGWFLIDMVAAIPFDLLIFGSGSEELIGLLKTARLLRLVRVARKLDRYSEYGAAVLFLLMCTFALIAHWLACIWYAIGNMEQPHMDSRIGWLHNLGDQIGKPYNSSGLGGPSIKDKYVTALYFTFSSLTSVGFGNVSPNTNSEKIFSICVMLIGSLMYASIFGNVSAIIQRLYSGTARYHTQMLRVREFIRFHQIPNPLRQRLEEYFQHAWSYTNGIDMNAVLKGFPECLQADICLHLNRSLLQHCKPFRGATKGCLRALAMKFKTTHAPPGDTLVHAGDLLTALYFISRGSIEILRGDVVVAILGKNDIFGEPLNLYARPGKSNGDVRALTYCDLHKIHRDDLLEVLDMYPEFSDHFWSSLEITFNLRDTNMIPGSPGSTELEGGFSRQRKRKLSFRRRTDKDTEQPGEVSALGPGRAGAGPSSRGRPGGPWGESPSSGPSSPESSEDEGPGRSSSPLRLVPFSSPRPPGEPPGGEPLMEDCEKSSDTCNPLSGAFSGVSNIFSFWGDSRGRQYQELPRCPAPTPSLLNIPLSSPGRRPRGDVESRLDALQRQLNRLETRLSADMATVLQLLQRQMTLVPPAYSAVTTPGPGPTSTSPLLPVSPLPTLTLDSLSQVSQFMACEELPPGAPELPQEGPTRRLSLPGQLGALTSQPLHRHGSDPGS
row,Compound,"hERG current change (%, negative = inhibition) at 1uM"
1,COc1ccc(S(=O)(=O)Nc2ccc3c(c2)N(C(C)=O)CCC3)cc1,9.13%
2,O=C(c1ccc(Cl)cc1)N(c1ccccn1)C1CCCCC1,18%
3,Cc1cc(C)n(CC2CC(=O)N(c3ccc(Cl)c(Cl)c3)C2=O)n1 (centres unmarked),8.07%
4,COc1ccc(/C=N/Nc2ncc(Br)cn2)c(OC)c1,16.4%
5,CCNC(=S)N1CCCCC1CO (centres unmarked),8.16%
6,Cc1ccc(S(=O)(=O)N2CCN(C(=O)COC(=O)COc3cccc4c3OC(C)(C)C4)CC2)cc1,11.8%
7,CC1(C)CC(=O)C2=C(C1)NCN(Cc1ccc3c(c1)OCO3)C2,-1.66%
8,COc1cc(CNc2ccccc2SC)ccc1O,4.46%
9,Cc1noc(C)c1C(=O)Nc1ccccn1,-3.65%
10,Fc1ccc(-c2nnsc2Sc2ccccn2)cc1,8.4%
11,CN(C)c1ccc(C(=O)c2ccccc2C(=O)O)cc1[N+](=O)[O-],12.6%
12,CCOC(=O)c1cnn(-c2cc(Oc3ccccc3C)ncn2)c1N,6.52%
13,CCOc1ccccc1Oc1coc2cc(OC(=O)c3ccco3)ccc2c1=O,-16.6%
14,COc1cc(C(C)=O)ccc1Oc1ncnc2c1cnn2-c1ccc(C)c(C)c1,9.42%
15,Cc1ccc2nc(-c3ccc(NS(C)(=O)=O)cc3)cc(-c3ccccc3)c2c1,6.3%
16,Cc1cc(C)n2nc(CCCCc3nc4nc(C)cc(C)n4n3)nc2n1,15.7%
17,CC1(C)C(=O)Nc2ccccc2N1C(=O)CSc1nnc2c(Cl)cc(Cl)cn12,3.67%
18,N#Cc1ccc(Oc2cccc(C(=O)O)c2)cc1C#N,4.25%
19,CSc1cccc(CNC(=O)CC2C(=O)NCCN2CC(C)(C)C)c1 (centres unmarked),9.97%
20,O=C(CSc1nc(Nc2ccccc2)nc(N2CCOCC2)n1)N1CCc2ccccc21,5.89%
21,CC(=O)c1ccc(OC(NC(=O)c2ccco2)C(Cl)(Cl)Cl)cc1 (centres unmarked),-0.753%
22,O=C(Nc1ccc(F)cc1)C1CCCN1S(=O)(=O)c1cccc2nsnc12 (centres unmarked),3.54%
23,CC(Sc1nnnn1C)C(=O)Nc1ccccc1 (centres unmarked),8.45%
24,N#Cc1ccc(Oc2nc(C(N)=O)cc(-c3ccccc3)n2)cc1,7.52%
25,Cc1nc(-c2ccc3c(c2)OCCCO3)cs1,14.4%
26,O=C(CSc1ccc(Cl)cc1)NC1CCCC1,10.7%

# Reference: PMC4336329 (PLoS ONE, 2015)
